From paper PMC5836133
This is one part of the list. At the low end of the ranking, values are background and their order means little.

system: T1, GST-NbGlk1(82-244); assay: protein-binding microarray; conditions: NbGlk1 is a Golden2-like transcription factor of Nicotiana benthamiana; high values mean tight binding; most listed sequences are background and not binding sites; double strand, one strand shown;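 note: rank-based score ranging −0.5 to +0.5 with E above 0.45 taken as significant binding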
T1 sequence: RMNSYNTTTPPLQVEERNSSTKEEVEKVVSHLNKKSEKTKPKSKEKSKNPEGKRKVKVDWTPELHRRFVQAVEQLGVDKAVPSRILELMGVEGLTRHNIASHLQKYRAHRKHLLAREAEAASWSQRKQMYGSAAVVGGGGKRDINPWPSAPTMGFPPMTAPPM

| Sequence | binding signal [E-score] |
| --- | --- |
| ACAGAAAA | 0.181 |
| AGTCCCAT | -0.178 |
| AACATGGG | -0.116 |
| AATCAGTA | 0.268 |
| AAGTACCA | -0.15 |
| AGGCCTAC | -0.237 |
| ACTTTGAG | -0.0814 |
| ACTGCCTC | -0.282 |
| AACTAACT | -0.0316 |
| AGCGAGCT | -0.214 |
| AAGGTTCC | -0.186 |
| ATACAGAG | 0.14 |
| ACTACAGA | 0.0769 |
| ATGCACCC | -0.169 |
| AAATATCG | 0.375 |
| ATCAGGCA | 0.137 |
| AGACTTTG | -0.0551 |
| ACAGATCC | 0.234 |
| CACAGCAA | 0.123 |
| ACGCAGCT | -0.239 |
| AGGACCAT | -0.168 |
| CAAGCCGC | -0.248 |
| ATGCATTA | -0.0288 |
| AGCACTCA | 0.0146 |
| AAGGGTAT | 0.0646 |

| Sequence | binding signal [E-score] |
| --- | --- |
| AATATTGA | 0.222 |
| AACGTCCT | -0.253 |
| CAATGCGG | -0.159 |
| ACTAATGA | 0.00719 |
| AGAGTTAC | -0.00533 |
| ATAGGGAG | -0.0387 |
| ACGCTTTA | 0.0231 |
| ACTGAAAC | 0.0347 |
| AACCTCTC | -0.255 |
| ATGTAGTC | -0.129 |
| AGTGACGG | -0.213 |
| ATTTACGC | 0.168 |
| CAGAACAC | -0.161 |
| AAAATAAC | 0.191 |
| ATTTGCAG | 0.269 |
| ATACTCTC | 0.163 |
| AGTTACAT | 0.145 |
| AAGACTTG | -0.0477 |
| AAGTCAGC | -0.15 |
| ACTGGGCA | -0.242 |
| ACTGATTC | 0.285 |
| ACATGAGA | 0.198 |
| ACATGAAG | -0.053 |
| AATATGTC | 0.115 |
| ACTACTCA | -0.0238 |

| Sequence | binding signal [E-score] |
| --- | --- |
| ACTTCAAG | -0.136 |
| ACAGGGAC | -0.154 |
| ATGGGAAA | 0.0974 |
| AGATCCCA | 0.219 |
| AAAGATTC | 0.401 |
| AGCGTTTA | -0.105 |
| AATCCCTC | 0.293 |
| ATATGCAG | 0.169 |
| AGACCCCT | -0.225 |
| AAGTATAT | 0.115 |
| CAAAGACC | -0.117 |
| CACAGCGC | -0.0588 |
| AAGCTTGG | -0.0876 |
| AAATTGTG | 0.0929 |
| ACTCTTTC | -0.0578 |
| ACAAGTTC | -0.169 |
| ACCAAGTC | -0.189 |
| ATGCTAAA | 0.0528 |
| ATCATAGG | 0.0467 |
| ATATTTTG | 0.274 |
| ACTTCCGC | -0.165 |
| ACGGTTCT | -0.115 |
| AGGGCTGC | -0.244 |
| ATCATGAC | 0.0994 |
| AACGACGC | -0.211 |

| Sequence | binding signal [E-score] |
| --- | --- |
| ACTATAGG | 0.00817 |
| CAGATGTC | -0.0223 |
| ATAGCGTC | -0.0235 |
| CACCAAAG | 0.0206 |
| ATCGGGCC | -0.178 |
| ACATTCAA | 0.0591 |
| ATCTACAA | 0.205 |
| ACAGTCAC | -0.174 |
| AAAGGTCA | -0.218 |
| ACCTACAG | -0.164 |
| ATTACCGA | 0.152 |
| AACGTTAA | 0.0623 |
| ATACCCGA | 0.0608 |
| ATAAGTTG | -0.000199 |
| ACTGGTCC | -0.226 |
| ATGCGGCG | -0.13 |
| CAAGAAGC | -0.115 |
| ATCAATCA | 0.169 |
| ACGGGAGG | -0.0577 |
| AGATGATG | -0.0199 |
| ACTTCCTC | -0.162 |
| AGACTCCG | -0.162 |
| AACTCGGG | -0.0923 |
| AACCTCAG | -0.154 |
| AATGTACC | -0.0313 |

| Sequence | binding signal [E-score] |
| --- | --- |
| AGGAACGC | -0.21 |
| ACCATAAT | 0.18 |
| AATTAGCA | 0.121 |
| ACACGCCT | -0.155 |
| AACGTGAT | 0.156 |
| ACCGAGCT | -0.258 |
| AGGATCCG | 0.26 |
| ACCGTCCC | -0.0387 |
| ACCAAGCT | -0.133 |
| ATTGACTC | -0.122 |
| ACTCGGAT | 0.252 |
| AATGATCC | 0.0806 |
| ATCAAGAG | 0.214 |
| ACTTCCAA | -0.037 |
| AGATTAGA | 0.129 |
| AGCCCATG | -0.165 |
| ATCGCTCC | 0.188 |
| ACTGCAAC | 0.0226 |
| AATGCAAA | 0.0558 |
| ACAGCGCT | -0.0789 |
| AGATATCG | 0.462 |
| AGTCAGGA | 0.144 |
| ATGGAACG | -0.104 |
| AAAATCTA | 0.458 |
| CACCATGC | -0.117 |

| Sequence | binding signal [E-score] |
| --- | --- |
| ATCAGAAC | 0.162 |
| AGGTATAT | 0.0144 |
| ACATAGTA | 0.0347 |
| ATCCTCGC | 0.205 |
| AAGTGACA | 0.00237 |
| AACTCGGA | -0.103 |
| AATTTATC | 0.113 |
| AAAGCGGA | 0.11 |
| AAACGCAC | -0.197 |
| ATAAGCCC | -0.228 |
| ATTGCACC | 0.222 |
| AAATATAC | 0.225 |
| AGAGAGAA | -0.0707 |
| ACAACGCT | -0.15 |
| AAGCGTCA | -0.0257 |
| ACTCGCAG | -0.0533 |
| AGCGCAAA | 0.00611 |
| AAAGTGGC | -0.175 |
| ACCAACGT | -0.138 |
| AAATCACT | 0.26 |
| ATACTGTG | 0.129 |
| CAATGTGC | -0.168 |
| AGCGGTGC | -0.252 |
| AGGGGTGC | -0.26 |
| CAACTATC | -0.0754 |

| Sequence | binding signal [E-score] |
| --- | --- |
| CACATATC | 0.207 |
| AATTTTCA | 0.228 |
| AAGCACCA | -0.247 |
| AGAGCTTG | -0.231 |
| AAAGCACC | -0.243 |
| ACTTCATA | 0.0422 |
| AGTAATTC | 0.0662 |
| AAGAAGGC | -0.221 |
| CAGAGGAC | -0.162 |
| CAACTTCA | 0.0464 |
| ACCCATAT | 0.129 |
| CACGGGAG | -0.104 |
| CAAACCGA | -0.0156 |
| ATGCGCGA | 0.128 |
| ATTCTCAC | 0.299 |
| ACCCGTCT | -0.146 |
| ACACAGTA | 0.0389 |
| CACCTTAG | -0.152 |
| AGCGCCTG | -0.128 |
| ATAACACC | 0.0245 |
| AAGTATGT | 0.0353 |
| AACTCTTA | 0.00102 |
